In PMC10668032 one finds binding signal data, which are given here for 172 sequences.

Some of the results follow. At the low end of the ranking the order means little.

For this assay, the target named is SIX1-Q177R homeodomain (UniProt Q15475). The assay is described as follows: universal protein binding microarray. Conditions: Universal all-10-mer PBM (8x60K, AMADID 030236), 300 nM GST-tagged protein, Alexa Fluor 488 anti-GST; buffer, salt, pH and temperature not stated; high values mean tight binding; most listed sequences are background and not binding sites; double strand, one strand shown.
As to GGACATAA, the binding signal was -0.07 E-score.
Consider AAAATTTT, for which the binding signal was -0.159 E-score.
Under ACAAAAAG stands -0.171 E-score.
Turning to CTTGACGA, the binding signal is -0.172 E-score.
Consider AGCGTCAG, for which the binding signal is -0.0163 E-score.
In the case of ACTTGTGC, the binding signal is -0.18 E-score.
Take CCATCTAG: the binding signal is -0.0296 E-score.
Under CAAGCCTC stands -0.145 E-score; under AAGCACTA, 0.102 E-score.
As to CAGTATGA, the binding signal is -0.0767 E-score.
CCCAGGGA: the binding signal was determined as 0.0355 E-score.
Take AGTCAGTC: the binding signal was -0.216 E-score.
ACTAAAAT: the binding signal was -0.304 E-score.
The value for GCAGTCGA was -0.136 E-score.
As for CCATCCCC, the binding signal is -0.00104 E-score.
Under GCTAGGCC stands -0.185 E-score; under CACGCGTG, 0.317 E-score.
Under AAGTTCAT stands -0.232 E-score; under GGCCCGGA, -0.043 E-score.
Turning to ATTGTGAA, the binding signal is -0.0287 E-score.
Regarding AGATTGGC, the binding signal was -0.169 E-score.
For AGTCTAAG, the binding signal is -0.00597 E-score.
Turning to ACTTCGGA, the binding signal is -0.000585 E-score.
ACTGCGAC: the binding signal is -0.0806 E-score.
Take TACGATCA: the binding signal was -0.198 E-score.
The value for AGGACCAA was -0.0709 E-score.
On to ACGCGTAG, for which the binding signal is 0.0528 E-score.
For GGCTAACC, the binding signal worked out at 0.0192 E-score.
Turning to GAATTAGA, the binding signal is -0.17 E-score.
ATAAAACA: the binding signal was found to be 0.0261 E-score.
The value for CTTCTTAA was -0.133 E-score; that for AACTTACT was -0.105 E-score.
For the sequence ATGCGAGA, the binding signal is -0.127 E-score.
The value for GAATCCAC was -0.02 E-score; that for GCGTTTCA was -0.099 E-score; that for CCCTGGGA was 0.0429 E-score.
Under ATACTCGC stands 0.0254 E-score; under CAATTCGG, -0.0704 E-score.
As for CTACAAAC, the binding signal is -0.0143 E-score.
Regarding AACGTTTG, the binding signal is -0.0579 E-score.
Under TCCAACAA stands 0.0435 E-score; under CGATAATC, -0.158 E-score.
As for TAACTCTA, the binding signal is -0.0647 E-score.
On to ACTGCATA, for which the binding signal came out at 0.214 E-score.
For CCCCTTTC, the binding signal is -0.015 E-score.
As to CTAGACGC, the binding signal was determined as 0.0629 E-score.
For AAAACGTT, the binding signal was -0.391 E-score.
For the sequence AAAAGTCC, the binding signal was found to be 0.0626 E-score.
As to TCTCTACA, the binding signal was determined as 0.045 E-score.
Consider GGATTGTA, for which the binding signal was -0.246 E-score.
Regarding GGATTACA, the binding signal was 0.134 E-score.
Turning to AAGGACAC, the binding signal came out at 0.405 E-score.
As to TTACGGAA, the binding signal was 0.00473 E-score.
With CTACTACA, the binding signal was 0.134 E-score.
Take CGCTGCCC: the binding signal turned out to be 0.141 E-score.
Under ATGCGCGC stands -0.0386 E-score.
The value for AATTGGGT was 0.0537 E-score; that for GGATCAGA was 0.17 E-score; that for GCATATCC was -0.119 E-score.
For TACACATA, the binding signal stood at 0.209 E-score.
ACCCGGAT: the binding signal worked out at 0.301 E-score.
Consider CTCGAGCC, for which the binding signal came out at 0.1 E-score.
Take GAGATAAA: the binding signal came to 0.00967 E-score.
As to CGATGGAC, the binding signal was -0.12 E-score.
As for AAGAGAAC, the binding signal was 0.0147 E-score.
Turning to AACGTCAT, the binding signal is -0.22 E-score.
Consider ACGAGCCA, for which the binding signal was found to be 0.0039 E-score.
On to TACCAGAA, for which the binding signal was 0.0104 E-score.
Regarding GCCCAACA, the binding signal was 0.313 E-score.
Under ACTACTTC stands 0.0147 E-score; under AATCTATC, -0.231 E-score.
As to AGGGATGA, the binding signal is -0.123 E-score.
With TACCTAGA, the binding signal was determined as 0.0914 E-score.
Take ATCGCCCA: the binding signal was -0.164 E-score.
As for ATATCTTA, the binding signal is -0.0635 E-score.
As to AGATCATG, the binding signal was -0.134 E-score.
As to AAGATCCG, the binding signal is -0.101 E-score.
In the case of GGGAGATA, the binding signal was -0.143 E-score.
Regarding AGGATTGC, the binding signal was -0.287 E-score.
The value for CAAATTGC was -0.135 E-score.
On to CAGACTGC, for which the binding signal was -0.0122 E-score.
As for ATGCACGG, the binding signal is 0.00124 E-score.
With AGTTACTG, the binding signal worked out at 0.00404 E-score.
For GCGGCGGA, the binding signal is -0.0347 E-score.
Under CAGCCCCC stands 0.0983 E-score.
With CGATGCCA, the binding signal was -0.101 E-score.
Under ATGGGCGA stands 0.00918 E-score; under ACCTACAT, 0.149 E-score.
On to GGTTCGAA, for which the binding signal came out at 0.0204 E-score.
As for CCAGCGGA, the binding signal was found to be 0.098 E-score.
For TATGGCCA, the binding signal is -0.173 E-score.
As to AAGACTCT, the binding signal was -0.162 E-score.
As to CATCTGCG, the binding signal was -0.0636 E-score.
CACTCGTA: the binding signal was found to be 0.152 E-score.
For CGCCTTCA, the binding signal is -0.23 E-score.
CACGCGGA: the binding signal turned out to be 0.0966 E-score.
As for TTGAGAAA, the binding signal was -0.0957 E-score.
ATTAGGCG: the binding signal was -0.0394 E-score.
As to CCATGGAG, the binding signal was 0.0738 E-score.
Under ACTAGCCA stands -0.12 E-score.
Turning to CTACAGTC, the binding signal is -0.265 E-score.
Consider ATTAAACC, for which the binding signal was -0.00846 E-score.
Turning to CAGCTGGC, the binding signal is 0.0504 E-score.
As for CCCAATCC, the binding signal is -0.017 E-score.
The value for CACCCAAC was 0.301 E-score.
As to ACCCAAGC, the binding signal stood at 0.00756 E-score.
Take CACAACGA: the binding signal stood at 0.0164 E-score.
Turning to AGACAGTC, the binding signal is -0.267 E-score.
For the sequence GCGCTCAC, the binding signal was -0.177 E-score.
Under ACGTGAAT stands -0.11 E-score; under CCTTTGTA, -0.0502 E-score; under CCAGTGAA, -0.0935 E-score.
Under ACGGACCT stands 0.122 E-score; under AGTTAACT, -0.0287 E-score; under ATTTAGCA, -0.0726 E-score.
Under ACCCACCG stands 0.0894 E-score.
Take ACAAGAGG: the binding signal is -0.0574 E-score.
Consider ACTACCCC, for which the binding signal was found to be 0.267 E-score.
ACGAAAAT: the binding signal came to 0.0009 E-score.
As for GACCTGTA, the binding signal was -0.0689 E-score.
The value for CTCATCCC was -0.0997 E-score.
Regarding ACCCGGCA, the binding signal came out at 0.0366 E-score.
For the sequence TATCAGCA, the binding signal stood at 0.00276 E-score.
Turning to ATACCACC, the binding signal was determined as 0.25 E-score.
With CAGGGAAC, the binding signal is -0.0266 E-score.
In the case of TGACCGAA, the binding signal is -0.251 E-score.
For ATCACGAA, the binding signal is -0.0575 E-score.
Regarding CCCCTCAG, the binding signal amounted to 0.251 E-score.
Turning to ATTAAAAT, the binding signal is -0.116 E-score.
With AGTCTCAG, the binding signal was -0.17 E-score.
For TAGCGCCA, the binding signal was -0.377 E-score.
With TCCGACAA, the binding signal is -0.111 E-score.
The value for ATCCGTTC was -0.0673 E-score; that for CGTTACGA was -0.196 E-score; that for GGTATAAC was 0.198 E-score.
As for ATAGGCTG, the binding signal is -0.142 E-score.
Regarding ATAAAGTC, the binding signal is -0.175 E-score.
Regarding CTACTAGC, the binding signal is -0.0989 E-score.
Regarding CCGTGACG, the binding signal amounted to 0.0163 E-score.
With GCATCACC, the binding signal is -0.119 E-score.
Under GACTGGGC stands -0.0516 E-score; under CGGGTACA, 0.28 E-score.
For ACCTCTGA, the binding signal was found to be 0.131 E-score.
ATACCGGA: the binding signal is 0.178 E-score.
For the sequence AACTCAGG, the binding signal is -0.106 E-score.
Consider CTACATCC, for which the binding signal was -0.152 E-score.
Regarding GCTTAAGA, the binding signal was -0.303 E-score.
On to GATAACCA, for which the binding signal is -0.204 E-score.
For the sequence ACTAACGC, the binding signal came to 0.107 E-score.
Turning to CAGAGGGA, the binding signal is -0.0529 E-score.
Regarding CCCCAAGA, the binding signal came out at 0.156 E-score.
Under GTCGCAGA stands -0.0975 E-score.
For the sequence CTACGCCC, the binding signal is 0.0405 E-score.
As for AAAAATAC, the binding signal is -0.157 E-score.
Regarding CGGGTCAG, the binding signal worked out at 0.066 E-score.
For the sequence AGGTTGCA, the binding signal amounted to 0.0461 E-score.
Consider CGCTGGCC, for which the binding signal was -0.0056 E-score.
Turning to AATTAGAT, the binding signal is -0.184 E-score.
Under GCGCCGGA stands 0.00295 E-score.
As for AAGATAAT, the binding signal is -0.111 E-score.
For the sequence AATGCCCG, the binding signal is -0.0695 E-score.
Regarding AGAGTGCA, the binding signal came out at 0.0756 E-score.
On to GGAATGCC, for which the binding signal was -0.189 E-score.
Consider GTCCGTAA, for which the binding signal stood at 0.103 E-score.
The value for GTAACCTA was -0.0889 E-score; that for TAGGGTCA was 0.0995 E-score; that for GATCTGTA was -0.116 E-score.
As for CCCCGGGG, the binding signal was determined as 0.149 E-score.
With CTCCATTA, the binding signal was 0.0347 E-score.
On to AACAATTA, for which the binding signal is -0.169 E-score.
With CCTGCACA, the binding signal was 0.0692 E-score.
Under ATTCTCCC stands 0.0841 E-score.
